Results taken from PMC3179504 (PLoS ONE, 2011).

Test system: PAK1 (ser199/204)/PAK2 (ser192/197)
Assay: PAK phosphorylation, Western blot, U373MG cells
Details: 1 hour, SP 100 nM, 1 min
Method: Cells were lysed in lithium dodecyl sulfate (LDS) sample buffer (Invitrogen, Carlsbad, CA), and lysed using a sonic dismembrator model 100 (Fisher Scientific, Hampton, NH). Cell extracts were subjected to LDS polyacrylamide gel electrophoresis and transferred to polyvinylidene difluoride membranes. After blocking with 5% nonfat dry milk in 0.1% Tween 20/TBS, membranes were incubated with the primary antibody. […] The following non phospho-specific antibodies were used: Beta-Actin and PAK1/2/3 (Cell Signaling Technology, Beverly, MA). Secondary antibodies conjugated to horseradish peroxidase were either anti-rabbit (Biorad, Hercules, CA), or anti-mouse (Cell Signaling Technology, Beverly, MA). Bands were visualized by enhanced chemiluminescence using SuperSignal® West Pico Chemiluminescent Substrate (Thermo Scientific, Rockford, IL) on a VersaDoc Imager (BioRad, Hercules, CA).

Compound	effect of IPA3 on SP-induced PAK phosphorylation (IPA3 20 µM)	effect of aprepitant on SP-induced PAK phosphorylation (aprepitant 1 µM)
Oc1ccc2ccccc2c1SSc1c(O)ccc2ccccc12 [IPA3, 1, 1′-Dithiodi-2-naphthtol]	inhibition of SP-induced PAK phosphorylation	–
C[C@@H](O[C@H]1OCCN(Cc2n[nH]c(=O)[nH]2)[C@H]1c1ccc(F)cc1)c1cc(C(F)(F)F)cc(C(F)(F)F)c1 [aprepitant]	–	complete block of SP-induced PAK phosphorylation
